In PMC3063775 one finds binding data, which are given here for four molecules.

Chains of the proteins cited; added tags and fusions are not shown.
UniProt Q14457: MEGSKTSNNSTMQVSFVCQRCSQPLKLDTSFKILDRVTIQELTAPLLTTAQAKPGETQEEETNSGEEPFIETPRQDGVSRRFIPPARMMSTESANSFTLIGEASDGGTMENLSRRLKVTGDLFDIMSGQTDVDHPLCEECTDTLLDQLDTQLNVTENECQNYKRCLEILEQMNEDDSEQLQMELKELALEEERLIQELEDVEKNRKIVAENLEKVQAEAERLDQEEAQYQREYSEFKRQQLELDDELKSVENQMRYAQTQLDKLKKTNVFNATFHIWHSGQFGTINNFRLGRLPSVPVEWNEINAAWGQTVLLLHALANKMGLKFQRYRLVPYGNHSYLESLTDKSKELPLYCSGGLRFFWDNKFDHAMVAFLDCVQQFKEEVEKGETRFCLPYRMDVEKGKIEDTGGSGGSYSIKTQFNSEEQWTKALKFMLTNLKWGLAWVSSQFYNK
UniProt Q9EQW7: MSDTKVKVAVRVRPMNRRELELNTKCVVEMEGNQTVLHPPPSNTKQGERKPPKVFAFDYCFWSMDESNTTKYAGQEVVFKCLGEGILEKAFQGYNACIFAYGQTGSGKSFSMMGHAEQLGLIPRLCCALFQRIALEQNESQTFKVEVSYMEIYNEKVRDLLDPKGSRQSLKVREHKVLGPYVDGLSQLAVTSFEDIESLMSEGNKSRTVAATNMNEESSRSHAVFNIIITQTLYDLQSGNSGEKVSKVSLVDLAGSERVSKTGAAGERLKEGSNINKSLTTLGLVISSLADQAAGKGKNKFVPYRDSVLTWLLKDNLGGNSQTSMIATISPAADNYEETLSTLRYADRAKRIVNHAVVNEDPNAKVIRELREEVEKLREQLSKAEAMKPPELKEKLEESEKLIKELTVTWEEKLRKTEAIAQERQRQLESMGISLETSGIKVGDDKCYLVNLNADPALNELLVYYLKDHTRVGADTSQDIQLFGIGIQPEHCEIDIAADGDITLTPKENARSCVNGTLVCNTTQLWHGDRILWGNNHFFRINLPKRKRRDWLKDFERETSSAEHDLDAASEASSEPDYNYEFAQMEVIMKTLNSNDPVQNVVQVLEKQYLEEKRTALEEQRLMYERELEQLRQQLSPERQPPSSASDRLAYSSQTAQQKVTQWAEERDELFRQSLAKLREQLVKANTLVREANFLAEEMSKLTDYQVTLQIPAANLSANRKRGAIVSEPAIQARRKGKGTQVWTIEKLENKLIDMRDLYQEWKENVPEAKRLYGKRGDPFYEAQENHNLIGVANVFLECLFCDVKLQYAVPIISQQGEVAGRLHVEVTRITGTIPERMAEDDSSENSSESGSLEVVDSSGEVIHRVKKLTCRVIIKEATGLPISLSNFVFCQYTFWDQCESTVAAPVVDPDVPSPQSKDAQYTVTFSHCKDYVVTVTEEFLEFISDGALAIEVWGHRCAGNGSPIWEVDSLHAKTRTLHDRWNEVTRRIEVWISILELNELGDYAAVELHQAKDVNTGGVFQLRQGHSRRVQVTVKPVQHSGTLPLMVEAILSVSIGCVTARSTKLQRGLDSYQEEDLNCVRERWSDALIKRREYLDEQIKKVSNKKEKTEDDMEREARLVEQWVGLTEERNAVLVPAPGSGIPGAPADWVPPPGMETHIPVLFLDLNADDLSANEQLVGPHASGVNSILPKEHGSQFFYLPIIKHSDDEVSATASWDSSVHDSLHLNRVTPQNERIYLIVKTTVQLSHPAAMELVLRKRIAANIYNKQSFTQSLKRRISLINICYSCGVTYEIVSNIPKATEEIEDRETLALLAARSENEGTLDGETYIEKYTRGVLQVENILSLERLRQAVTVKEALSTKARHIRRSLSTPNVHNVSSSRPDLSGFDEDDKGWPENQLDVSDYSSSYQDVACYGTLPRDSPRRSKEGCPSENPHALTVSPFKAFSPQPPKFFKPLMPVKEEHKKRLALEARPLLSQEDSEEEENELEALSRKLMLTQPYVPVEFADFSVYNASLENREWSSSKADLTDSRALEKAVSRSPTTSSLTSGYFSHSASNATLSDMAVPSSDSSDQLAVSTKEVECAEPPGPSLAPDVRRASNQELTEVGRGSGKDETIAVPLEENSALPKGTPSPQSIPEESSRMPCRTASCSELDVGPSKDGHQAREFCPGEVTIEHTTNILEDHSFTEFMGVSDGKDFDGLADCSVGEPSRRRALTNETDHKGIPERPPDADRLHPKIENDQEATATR

Where two headings read alike, the source gives them in different places. These are yes or no findings as the source states them, for the method shown. In cells and extracts the contact can be indirect. Some results given as binding are weak or reduced against the parent protein; the word gives no strength. For some of these results: Where a sequence is shown, tags or fusion partners need not be part of it.

The target in assay [1] is endogenous FYVE-CENT (wild type) (human (endogenous in HeLa and HCC-1395)) (UniProt Q68DK2). In words: co-IP; HCC-1395 (control) and HCC-1954 (FYVE-CENT R1945Q) cell lysates; rabbit antibody against FYVE-CENT on Protein A beads, 1 h at 4°C; blot with anti-Beclin 1 and anti-FYVE-CENT.
The target in assay [2] is endogenous FYVE-CENT R1945Q mutant protein from HCC-1954 breast cancer cells (human (endogenous in HCC-1954)) (UniProt Q68DK2). Described as above.
In assay [3] the target is endogenous FYVE-CENT (wild type) (human (endogenous in HeLa and HCC-1395)) (UniProt Q68DK2). Put plainly: co-IP; HeLa cell lysate; rabbit antibody against FYVE-CENT on Protein A beads, 1 h at 4°C; blot with anti-Beclin 1 and anti-FYVE-CENT.
Assay [4] concerns the target T1, GST-FYVE-CENT C-terminus (1807-2539) mutant R1945Q (human) (UniProt Q68DK2).
T1 sequence: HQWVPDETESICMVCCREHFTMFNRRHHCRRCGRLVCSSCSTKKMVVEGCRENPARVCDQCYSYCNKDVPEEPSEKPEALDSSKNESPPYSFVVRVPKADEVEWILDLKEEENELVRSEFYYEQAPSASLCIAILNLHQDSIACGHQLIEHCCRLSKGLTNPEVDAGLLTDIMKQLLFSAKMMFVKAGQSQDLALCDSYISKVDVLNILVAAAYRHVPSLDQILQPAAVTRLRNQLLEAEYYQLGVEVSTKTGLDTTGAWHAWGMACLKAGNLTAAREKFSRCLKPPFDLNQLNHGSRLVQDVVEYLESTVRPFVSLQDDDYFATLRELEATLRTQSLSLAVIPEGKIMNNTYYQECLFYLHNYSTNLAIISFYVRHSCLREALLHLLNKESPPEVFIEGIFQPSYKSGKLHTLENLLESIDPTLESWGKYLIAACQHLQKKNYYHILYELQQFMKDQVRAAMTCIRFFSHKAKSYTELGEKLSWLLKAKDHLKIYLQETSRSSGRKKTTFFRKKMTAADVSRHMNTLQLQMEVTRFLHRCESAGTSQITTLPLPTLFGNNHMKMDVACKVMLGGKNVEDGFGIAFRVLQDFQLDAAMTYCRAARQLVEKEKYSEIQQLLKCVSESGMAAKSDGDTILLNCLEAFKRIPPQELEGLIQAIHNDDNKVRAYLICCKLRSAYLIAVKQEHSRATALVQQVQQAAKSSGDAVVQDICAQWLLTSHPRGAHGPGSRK
Put plainly: pull-down; recombinant GST fusion proteins immobilized on glutathione-Sepharose beads, incubated with lysates of HeLa cells transiently over-expressing the myc-tagged protein; immunoblot; only the target purified.

Assay [5] deals with T2, GST-FYVE-CENT C-terminus (amino acid residues 2120-2539) (human) (UniProt Q68DK2).
T2 sequence: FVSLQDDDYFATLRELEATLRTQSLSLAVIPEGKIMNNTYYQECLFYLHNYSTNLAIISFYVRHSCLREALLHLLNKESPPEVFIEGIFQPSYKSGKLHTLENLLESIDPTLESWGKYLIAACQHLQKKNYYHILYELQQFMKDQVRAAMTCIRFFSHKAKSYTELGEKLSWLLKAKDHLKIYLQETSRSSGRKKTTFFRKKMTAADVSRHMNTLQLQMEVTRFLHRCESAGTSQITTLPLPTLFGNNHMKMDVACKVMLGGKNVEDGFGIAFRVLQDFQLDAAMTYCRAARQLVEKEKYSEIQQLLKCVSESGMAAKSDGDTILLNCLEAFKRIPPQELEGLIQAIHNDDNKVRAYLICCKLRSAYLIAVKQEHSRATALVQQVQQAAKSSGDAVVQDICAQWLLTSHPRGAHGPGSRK
The description is as above.

Assay [6] addresses T3, GST-FYVE-CENT C-terminus (1807-2539) (human) (UniProt Q68DK2).
T3 sequence: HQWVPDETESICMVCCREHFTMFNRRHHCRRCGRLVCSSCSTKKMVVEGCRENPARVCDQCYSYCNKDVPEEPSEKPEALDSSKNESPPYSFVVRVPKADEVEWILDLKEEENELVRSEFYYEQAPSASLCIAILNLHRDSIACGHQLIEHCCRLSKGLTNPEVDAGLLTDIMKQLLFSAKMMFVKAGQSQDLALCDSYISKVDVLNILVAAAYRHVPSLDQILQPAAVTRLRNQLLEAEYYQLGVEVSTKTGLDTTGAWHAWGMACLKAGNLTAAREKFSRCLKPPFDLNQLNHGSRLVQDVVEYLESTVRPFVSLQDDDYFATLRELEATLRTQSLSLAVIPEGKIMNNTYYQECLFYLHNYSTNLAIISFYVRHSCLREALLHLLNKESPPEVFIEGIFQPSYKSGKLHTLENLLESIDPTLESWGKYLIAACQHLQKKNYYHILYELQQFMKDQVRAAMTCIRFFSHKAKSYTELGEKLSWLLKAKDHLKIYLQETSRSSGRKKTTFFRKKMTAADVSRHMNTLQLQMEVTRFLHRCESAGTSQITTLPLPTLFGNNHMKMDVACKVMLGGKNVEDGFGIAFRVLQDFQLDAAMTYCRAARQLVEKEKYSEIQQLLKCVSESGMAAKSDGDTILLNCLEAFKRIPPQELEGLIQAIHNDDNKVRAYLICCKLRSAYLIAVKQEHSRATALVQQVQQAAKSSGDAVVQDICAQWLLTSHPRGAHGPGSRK
The description is as above.

The target in assay [7] is T1, GST-FYVE-CENT C-terminus (1807-2539) mutant R1945Q (human). Described as above. The source holds these as a separate data set.
Assay [8] concerns the target T3, GST-FYVE-CENT C-terminus (1807-2539) (human). The description is as above. This is another data set of the same source.

For the molecule “endogenous Beclin 1 (from UniProt Q14457 1-450)”, the binding entry was “binds” in assay [1], “no binding” in assay [2] and “binds” in assay [3].
Turning to “myc-Beclin 1 (from UniProt Q14457 1-450)”, the binding result in assay [4] is on record as “no binding”; in assay [5], “binds”; in assay [6], “binds”.
Regarding “myc-epitope-tagged mouse KIF13A (from UniProt Q9EQW7 1-1749)”, the binding result in assay [4] and in assay [6] was “binds” each time.

B1: myc-TTC19 (protein, UniProt Q6DKK2 71-380)
chain: AAEEEEQQGADGAAAEDGADEAEAEIIQLLKRAKLSIMKDEPEEAELILHDALRLAYQTDNKKAITYTYDLMANLAFIRGQLENAEQLFKATMSYLLGGGMKQEDNAIIEISLKLASIYAAQNRQEFAVAGYEFCISTLEEKIEREKELAEDIMSVEEKANTHLLLGMCLDACARYLLFSKQPSQAQRMYEKALQISEEIQGERHPQTIVLMSDLATTLDAQGRFDEAYIYMQRASDLARQINHPELHMVLSNLAAVLMHRERYTQAKEIYQEALKQAKLKKDEISVQHIREELAELSKKSRPLTNSVKL
Take B1: the binding result in assay [7] and in assay [8] was “binds” in each case.
